From the supplement of paper PMC10126150
Values marked as one replicate rest on one cluster of the flow cell; about a third of the high ones do not repeat.

Each sequence was assayed on ATP (assay: switch fluorescence ratio, 500 uM ATP over buffer (Cy3 cluster intensity, sum of 5 cycles each) (fold (ratio)); higher = stronger signal-on switching upon ATP binding; sequences stand for … in TCGTCGGCAGCGTCAGATGTGTATAAGAGACAGTTTTTTTTTTTTTTTTTTTTTTTTT…TC). Conditions: aptamer strand: ATP DNA aptamer (quencher-CACCTGGGGGAGTATTGCGGAGGAAGG + anchor), 100 nM annealed; ATP concentration: 500 uM; one replicate.
Procedure, shortened: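 The fluorescence ratio divides summed target-cycle Cy3 intensity by summed buffer-cycle Cy3 intensity for each cluster and is averaged per switch-domain sequence. Cy3-labelled switching-strand clusters on a modified Illumina MiSeq flow-cell were annealed to 100 nM quencher-labelled ATP aptamer, then imaged in selection buffer and again after 15 min with 500 uM ATP at 22 °C. Five such cycles were run, with NaOH stripping and re-annealing between them, and clusters outside 100-1000 RFU were excluded.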
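Note: ATP exposure 15 min at 22 °C before imaging.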

Sequence | switch fluorescence ratio
GCCAAGCAAT | 1.88
GCCAAGCCCG | 0.972
GCCAATGATG | 0.965
GCCACAAGGC | 0.981
GCCACAGTGT | 1.33
GCCACATGTT | 1.01
GCCACGCATA | 1.16
GCCACGTACG | 1.66
GCCAGAAGAA | 0.973
GCCAGAGGTA | 1.02
GCCAGCAGTC | 1.23
GCCAGGAAA | 0.945
GCCAGGGGGC | 1.32
GCCAGTTCAC | 1.02
GCCATAAGAG | 0.987
GCCATCGGGC | 1.01
GCCATGGTGC | 1.23
GCCATTAGGC | 0.968
GCCATTCGGG | 1.03
GCCCAACCTT | 1.38
GCCCAACGTT | 0.983
GCCCATGGGG | 1.12
GCCCCAACCG | 1.11
GCCCCCGATG | 1.46
GCCCCGTTGA | 1.04

Sequence | switch fluorescence ratio
GCCCCTAGAT | 1.03
GCCCCTTGAT | 0.981
GCCCGACACC | 1.07
GCCCGAGTCT | 0.983
GCCCGCAGCG | 1.48
GCCCGCGCAG | 1.01
GCCCGGAGTC | 1.09
GCCCGTTGCG | 0.969
GCCCTCGCCG | 1.06
GCCCTCTTCC | 1.25
GCCCTGCCCG | 1.03
GCCCTGGACC | 1.01
GCCCTGGAGG | 1.24
GCCGAAAGGT | 1.04
GCCGAAGCCT | 1.56
GCCGAAGTAA | 2.98
GCCGAATGGC | 1.03
GCCGACTAGC | 1.06
GCCGAGAAAG | 0.994
GCCGAGTTAA | 0.991
GCCGATAAGG | 0.979
GCCGATACCT | 1.05
GCCGATGTGC | 1.01
GCCGCAGCTT | 1.28
GCCGCCCGGA | 0.987

Sequence | switch fluorescence ratio
GCCGCGGATA | 1.17
GCCGCTAGGG | 1.04
GCCGCTATCT | 1.05
GCCGCTGAGG | 1.02
GCCGGAAAAT | 0.994
GCCGGCATGT | 1.01
GCCGGCTGAC | 0.988
GCCGGGCGGC | 0.925
GCCGGGTACT | 0.999
GCCGGGTTGG | 1.01
GCCGGTCGCG | 1.02
GCCGTAACGA | 1
GCCGTACTTG | 0.99
GCCGTCGTTC | 0.974
GCCGTCTTAG | 0.966
GCCGTCTTTC | 0.981
GCCGTGTAAA | 1.02
GCCGTTTCAT | 1.01
GCCGTTTTCT | 0.983
GCCTACCCTT | 0.996
GCCTAGATGA | 0.956
GCCTAGTTAC | 1.09
GCCTATGCTA | 1.06
GCCTCCAGTC | 1.27
GCCTCCCAGG | 2.76

Sequence | switch fluorescence ratio
GCCTCCCGTT | 1.1
GCCTCGGGAT | 1
GCCTGATACG | 1.14
GCCTGCACTT | 0.971
GCCTGCGTAT | 1.08
GCCTGTGCCT | 1.04
GCCTGTTCGA | 1
GCCTTCGGCC | 0.996
GCCTTCTAAG | 1.04
GCCTTGGGTG | 1.02
GCCTTGTGTT | 0.988
GCCTTGTTAT | 1
GCGAAAAACT | 3.92
GCGAAAATTA | 1
GCGAAAATTG | 0.959
GCGAAACGAG | 1.14
GCGAAAGGGG | 0.992
GCGAAATTCG | 0.982
GCGAACGTAA | 3.84
GCGAAGATGC | 1.08
GCGAATCATC | 0.999
GCGACAATAT | 2.87
GCGACCGGTG | 1.58
GCGACGCCTT | 1.24
GCGACGCTGT | 2.33
